# From PubChem BioAssay AID463173 (ICCB-Longwood Screening Facility, Harvard Medical School, 2010)
# In all, about 52,000 compounds went through this assay and about 1,700 (3.3%) were called active. Rule as the data show it: active = survival mostly below about 52% (no sharp cut-off); inactive = mostly above about 56%. The list shows a part of the results.
# Test system: Wild type
# Assay: growth inhibition of S. aureus wild type versus tarO mutant, primary screen, teichoic acid synthesis inhibitors, RN4220, OD600 (AID 463173)
# Conditions: S. aureus RN4220 wild type/DeltatarO growth, OD600, 18 h, stronger effect = lower value, screened at 18.75 µg/mL (by protocol)
row,Structure (SMILES),survival
1,COc1ccccc1CNC(=O)CN1C(=O)CCc2cc(S(=O)(=O)N3CCCCC3)ccc21,inactive: 88%
2,O=C(CSc1nc(-c2cccs2)nc2cc(=O)[nH]n12)Nc1ccccc1,inactive: 89%
3,CCCN(CCC)CCNC(=O)Cn1cnc2sc(C)c(S(=O)(=O)N3CCC(C)CC3)c2c1=O,inactive: 75%
4,CCOC(=O)C1CCN(c2nc3c(S(=O)(=O)c4ccc(Br)cc4)nnn3c3ccsc23)CC1,inactive: 87%
5,FC(F)(F)c1cccc(-n2cc(-c3ccccc3)c3c(N4CCCCC4)ncnc32)c1,inactive: 68%
6,COc1ccc(CCNC(=O)Cn2cc(C(=O)c3ccc(Cl)cc3)c(=O)c3ccc(C)nc32)cc1OC,inactive: 127%
7,CCc1ccc(NC(=O)CC(c2cc(OC)c(OC)c(OC)c2)N2Cc3ccccc3C2=O)cc1 (stereo unspecified),inactive: 71%
8,CCOC(=O)c1cccc(NC(=O)Cn2nc3c(cc2=O)CCCC3)c1,inactive: 32%
9,Cn1c(=O)n(C)c2cc(NS(=O)(=O)c3ccc(F)cc3)c(NCc3ccccc3)cc21,inactive: 72%
10,COCCN1C(=O)c2oc3cc(C)cc(C)c3c(=O)c2C1c1cccc(O)c1 (stereo unspecified),inactive: 79%
11,COc1ccc(CNC(=O)c2cc3c(-c4ccc(Cl)cc4)nn(C)c3s2)cc1,inactive: 123%
12,COc1ccc(S(=O)(=O)N(CCc2ccccc2)CC(=O)NCc2ccccc2)cc1,inactive: 89%
13,Cc1ccc(N2CC(C(=O)NCCS(=O)(=O)N3CCN(c4ccccc4)CC3)CC2=O)cc1 (stereo unspecified),inactive: 73%
14,Cc1c(C(=O)NC(C)c2ccccc2)sc2ncnc(N(C)C3CCCCC3)c12 (stereo unspecified),inactive: 79%
15,Cc1ccc(-c2c(CN3CCN(c4cc(C)ccc4C)CC3)csc2C)cc1,inactive: 102%
16,CCc1c(C)nc2c(C)cccc2c1Cl,inactive: 106%
17,O=S(=O)(Nc1ccc(-c2ccc(N3CCCCC3)nn2)cc1)c1ccc(OC(F)(F)F)cc1,inactive: 72%
18,CCCn1cc(S(=O)(=O)c2cccc(Cl)c2)c(=O)c2cc(F)c(N3CCOCC3)cc21,inactive: 76%
19,CCN(CC)C(=O)CSc1nnc2ccc3ccccc3n12,inactive: 78%

row,Structure (SMILES),survival
1,CCc1ccccc1NC(=O)CN1C(=O)CCn2nc(-c3cccn3C)cc21,inactive: 55%
2,Cc1nn(-c2ccc(N3CCCCC3)nn2)c(C)c1CCC(=O)NCc1ccc(F)cc1,inactive: 88%
3,COc1ccccc1CNC(=O)Cn1cc2c(n1)-c1c(oc(C(=O)N3CCOCC3)c1C)CC2,inactive: 84%
4,COc1ccc(CC(CN)c2ccccc2)cc1 (stereo unspecified),inactive: 113%
5,COC(=O)c1sccc1S(=O)(=O)N(CC(=O)Nc1cccc(C)c1C)c1ccc(C)c(C)c1,inactive: 69%
6,COc1cc(OC)c(NC(=O)Cn2ncn3c(cc4cc(C)ccc43)c2=O)cc1Cl,inactive: 129%
7,Cc1cccc(NC(=O)CSC2=Nc3ccccc3C3=NC(CCC(=O)NCc4ccco4)C(=O)N23)c1 (stereo unspecified),inactive: 81%
8,CN(C)c1ccc(-c2nnc(SCC3CCCO3)n2C)cc1 (stereo unspecified),inactive: 103%
9,CCc1ccc(-c2cn3nc(CC)sc3n2)cc1,inactive: 72%
10,CCSc1nc2ccccc2c(OCc2ccc(Cl)cc2)c1C(=O)OC,inactive: 88%
11,COc1ccc2c(c1)c1c(c(=O)n(CCc3ccccc3)c(=O)n1Cc1cccc(F)c1)n2C,inactive: 63%
12,CCc1ccccc1NC(=O)c1ccc2c(c1)CCCN2S(C)(=O)=O,inactive: 113%
13,Cc1ccc(-c2onc(C)c2C)cc1S(=O)(=O)Nc1ccccn1,inactive: 82%
14,COc1ccc2c(C)c(CC(=O)NCc3ccccc3Cl)c(=O)oc2c1OC,inactive: 97%
15,CC(C)CN(CCNC(=O)CCN1N=C(c2ccccc2)CCC1=O)CC(C)C,inactive: 82%
16,C/C(=N\NC(=O)c1ccc(N2CCCC2=O)cc1)c1ccccc1,inactive: 103%
17,CN(C)S(=O)(=O)N1CCC(n2c(C(F)(F)F)nc3cccnc32)CC1,inactive: 128%
18,COc1ccc(Cn2c(CO)cnc2SCc2ccc(C)cc2)cc1,inactive: 133%
19,CC(C)(C)OC(=O)N1CCC(c2c(C(=O)N3CCN(Cc4ccccc4)CC3)cnn2-c2cccc(Cl)c2)CC1,inactive: 71%

row,Structure (SMILES),survival
1,COc1ccc(CCNC(=O)CN(c2ccccc2)S(=O)(=O)N(C)C)cc1OC,inactive: 83%
2,COc1ccc(-c2nc3cc(NC(=O)COc4ccccc4C)ccc3o2)cc1,inactive: 86%
3,CC(=O)N1CCC(N(CCCOC(C)C)C(=O)Nc2ccc(C)c(C)c2)CC1,inactive: 82%
4,CCc1cccc(C)c1NC(=O)CSc1nc2ccccc2nc1Cc1ccccc1,inactive: 68%
5,Cc1ccc(NC(=O)c2oc3ccc(S(=O)(=O)N4CCC5(CC4)OCCO5)cc3c2C)cc1Cl,inactive: 120%
6,O=C(CN1C(=O)CCSc2ccc(S(=O)(=O)N3CCCC3)cc21)Nc1cccc(F)c1,inactive: 59%
7,CCc1c(C)sc2c1CCN(Cc1ccc(C#N)cc1)C2c1ccccc1 (stereo unspecified),inactive: 87%
8,CCOC(=O)c1c(NC(=O)c2cc(-c3ccc(OC)c(OC)c3)on2)sc2c1CCCC2,inactive: 83%
9,CCOC(=O)C(C)NC(=O)c1c2c(nc3ccccc13)C(=O)N(C1CCCCC1)C2 (stereo unspecified),inactive: 94%
10,COc1cc(C(c2c(C)[nH][nH]c2=O)c2c(C)[nH][nH]c2=O)ccc1OC(=O)c1ccccc1OC,inactive: 132%
11,COC(=O)CC1Oc2ccccc2-n2cc(-c3ccc(F)cc3)nc21 (stereo unspecified),inactive: 79%
12,COc1ccc(Nc2nn3c(=O)c4cc5c(cc4nc3s2)OCO5)c(OC)c1,inactive: 141%
13,Cc1ccc(Cl)cc1-n1nnc(-c2nc(-c3ccc4c(c3)OCO4)no2)c1C,inactive: 127%
14,Cc1cccc(N(C)S(=O)(=O)c2cc(-c3cnc(C4CC4)o3)ccc2C)c1,inactive: 143%
15,C=CC[N+]1(CC=C)CCOCC1,inactive: 104%
16,O=C(CCNS(=O)(=O)c1ccc2c(c1)CCN2C(=O)C1CC1)N1CCN(c2cccc(Cl)c2)CC1,inactive: 127%
17,CCOc1ccc(/C=C/C(=O)Nc2ccc3nc(N(CC)CC)cc(C)c3c2)cc1OC,inactive: 83%
18,Cc1ccc(C)c(NC(=S)NC2CC3CCC(C2)N3Cc2ccco2)c1 (stereo unspecified),inactive: 104%
